This is an account of results in the RNAGym collection of RNA variant scans (doi:10.7554/elife.90254).

The source gives no read counts; variants with many changes may rest on few reads.

B1: LINE1-mini (parent)
chain: GGCAGAGCUCAACACAGCGUGGCAAAGUGGCUGUGGCUAGACUGCC

The variants in this data set derive from B1. The data set is described as follows: self-cleavage, relative activity (ratio to wild type); higher = more cleavage; in vitro, sequencing; the parent is a self-cleaving ribozyme.
Regarding A11C G21U G36C, the self-cleavage was 0.01.
As to A11G G22A C23A U28C G40C G44A, the self-cleavage was 0.01.
A11G G19C G33C: the self-cleavage was found to be 0.01.
For A11C C18G A39C A41C U43A C46U, the self-cleavage is 0.01.
For A11C U20G G21U G22C U34A, the self-cleavage was 0.03.
As for A11G C18G A24G U32C G36A C42G, the self-cleavage was found to be 0.
With A11G C18U A25U, the self-cleavage came to 0.01.
Take A11G G21C G22A: the self-cleavage worked out at 0.02.
With A11G G27U G36A, the self-cleavage worked out at 0.03.
With A11G C18A G19C, the self-cleavage was determined as 0.01.
As to A11C G27A U34A, the self-cleavage is 0.
Regarding A11G A25U G29U G36U C46U, the self-cleavage came out at 0.02.
Regarding A11C U32G U43C, the self-cleavage was 0.
For the variant A11C G19U C42A, the self-cleavage turned out to be 0.
With A11G G33U C45U the figure was 0.01; with A11G G17C G21U U38C, 0.01; with A11G G36U A39U U43A, 0.
In the case of A11C A16C U20C G27A U28G, the self-cleavage was 0.02.
Regarding A11G C13A U38C, the self-cleavage was found to be 0.
As for A11C A16G C46U, the self-cleavage was found to be 0.02.
In the case of A11G G22C A25U U43C, the self-cleavage was 0.
Take A11G G22U U34C G35C C46G: the self-cleavage is 0.01.
With A11G C15A G19A U32G C42U the figure was 0.03; with A11C G30A C42A, 0.01; with A11G G33A C46G, 0.06.
With A11C U34A G35U U38A, the self-cleavage amounted to 0.
Turning to A11C G35U C45G, the self-cleavage was 0.01.
With A11C G35U C45A the figure was 0.01.
Consider A11C G17C G30U, for which the self-cleavage amounted to 0.
In the case of A11G G17C C18A A26C G29U C31G, the self-cleavage worked out at 0.02.
With A11C C31G G33C the figure was 0.03.
Consider A11G A14C C15U, for which the self-cleavage amounted to 0.03.
For the variant A11C C13U G36C G40U, the self-cleavage was found to be 0.04.
For the variant A11G G17C G29A G36C A39C, the self-cleavage came to 0.
With A11G G17C G19U C31G, the self-cleavage is 0.02.
On to A11C A25U G30U A41U U43G, for which the self-cleavage stood at 0.
With A11C A25G U32G C37A G44A the figure was 0.02; with A11C G29C A39G, 0.
A11C G21C U28G C46A: the self-cleavage came to 0.01.
The value for A11C G29U G30U G40A A41U was 0.01; that for A11G A25G G27U was 0.01; that for A11C G21U G30U C37G was 0.02.
The value for A11C G35C A41U was 0.01; that for A11C C18G A41U was 0.03; that for A11C C18U A26C U43A was 0.02.
With A11G C37A U38A, the self-cleavage was found to be 0.
With A11C G21C A26U G33A G40A, the self-cleavage came to 0.02.
In the case of A11C G22A A25U U28C, the self-cleavage turned out to be 0.1.
Regarding A11C G17U C18G, the self-cleavage worked out at 0.05.
For the variant A11G A14U A25G G30C A39U, the self-cleavage was 0.05.
With A11C C15A A16C C18G G40C, the self-cleavage came out at 0.01.
With A11C G17U C18U G29A the figure was 0.
The value for A11G C13U G22A G29A U32G A41G C42U G44C was 0.01; that for A11G G21C U43C was 0.01; that for A11C C13A C23U C31G was 0.05.
Consider A11G G17U G27A G29C, for which the self-cleavage is 0.02.
With A11G G22A A41G, the self-cleavage amounted to 0.03.
With A11C G40U C46G the figure was 0.
A11G A12U C31G: the self-cleavage was 0.01.
Take A11G C23A G27A G44A: the self-cleavage came out at 0.02.
With A11C G21C U34G the figure was 0; with A11C U38A C42U, 0; with A11C C18U G22C G33U, 0.02.
A11G A12U C13A G19A G29A: the self-cleavage was found to be 0.
A11G G19U G44U: the self-cleavage came out at 0.03.
Take A11C G33A U34C: the self-cleavage is 0.01.
The value for A11C C18U G35C U38A was 0.02.
For A11G C18U C23G U28A, the self-cleavage worked out at 0.02.
A11G C13A A16C: the self-cleavage is 0.05.
As for A11C G27A G29U G33C G35A A41G, the self-cleavage came out at 0.01.
As for A11C C15U G22A A24C A26U, the self-cleavage came out at 0.01.
A11G C13U U38A: the self-cleavage was 0.02.
With A11C A26U C31U U43C the figure was 0.
With A11G C31A G40C the figure was 0.01.
As for A11C C18U G27A G40C, the self-cleavage was determined as 0.02.
The value for A11G G19A G21C C42U was 0.01; that for A11G G36U C46A was 0.03; that for A11G A16G U20G G44A was 0.01.
The value for A11C C18U G22U was 0.21.
Take A11C C18G G36U: the self-cleavage was 0.01.
A11G A14U A25G U28A A39G A41U C46U: the self-cleavage is 0.
A11C G19U A39U: the self-cleavage was 0.02.
In the case of A11C C18A C37G, the self-cleavage was determined as 0.01.
With A11C C18A G44U, the self-cleavage was found to be 0.03.
With A11C C13A C45G the figure was 0.03.
As for A11G G17A C37A, the self-cleavage was determined as 0.06.
With A11G G17C G19U C23G G27C U32C C45U, the self-cleavage came to 0.02.
For the variant A11G G29A G33C C45A, the self-cleavage amounted to 0.
With A11C G21C C31G the figure was 0.01; with A11C C15U G19A G27C U32C G33A, 0.03.
In the case of A11G C13A G40A, the self-cleavage is 0.02.
With A11C G22U G35U C46A the figure was 0; with A11C U28A G30C C37A, 0.01.
On to A11G G22U C31G U43A, for which the self-cleavage worked out at 0.01.
With A11C C15A C18U G22C the figure was 0; with A11C C18A G19U C31G U38C, 0.02.
Turning to A11G A12U G29A G30U U43C, the self-cleavage came out at 0.02.
As to A11C A16C G29C C37G U43C, the self-cleavage turned out to be 0.
With A11G G22A A24G, the self-cleavage worked out at 0.01.
Turning to A11G G19U C23G G33C, the self-cleavage is 0.
Take A11G C13G C15U A25C A39G G40U: the self-cleavage was 0.04.
With A11C A14U C15U C18G the figure was 0.02; with A11G A16C C45G, 0.03; with A11G G19A C37G, 0.01.
For A11C G19A C46G, the self-cleavage amounted to 0.04.
The value for A11C C18G G19C was 0.01; that for A11G C13G C23G U32C was 0.
As to A11G A12U G19A, the self-cleavage was found to be 0.02.
A11C C31U U38A A41C: the self-cleavage was determined as 0.01.
In the case of A11G G19C G40A, the self-cleavage was 0.01.
As for A11C C15A A39G, the self-cleavage is 0.03.
Take A11C G36A A41C: the self-cleavage was determined as 0.
For A11C G36A A41U, the self-cleavage came out at 0.02.
The value for A11C G35U A39C was 0.01; that for A11C A16G G27U was 0.01.
Regarding A11C C15G C18U, the self-cleavage stood at 0.02.
For A11C C23G C31A U43C C46A, the self-cleavage worked out at 0.02.
With A11G C13G C15G C18G G22U the figure was 0.01; with A11G A26C G29U U34G, 0.01; with A11C U32A U38C A41G, 0.01.
For the variant A11C C23A U28G A39G, the self-cleavage stood at 0.01.
The value for A11G A14U C42U was 0.02; that for A11C G22A G35U U43G was 0.01.
On to A11G C18A C31U C45A, for which the self-cleavage amounted to 0.
The value for A11G C13G U20A G36U was 0.02; that for A11C G30C G36U was 0.01; that for A11C G17U A39G G44C was 0.
For the variant A11G C23A G33C U38A, the self-cleavage is 0.
For the variant A11C U28A G36U A41C, the self-cleavage was 0.
With A11C C13G G22C G29U the figure was 0.04; with A11C A41U U43A C45A, 0.01.
A11G G22U A26C: the self-cleavage amounted to 0.03.
With A11C G29C G36A the figure was 0.01.
Take A11C C13A C15G G40C: the self-cleavage is 0.01.
Take A11G C23G U38C G44C: the self-cleavage came to 0.
In the case of A11G G21A U28G, the self-cleavage is 0.01.
For A11G A16G C18U G21A G30U, the self-cleavage was 0.01.
For A11C U28C U34A G44U, the self-cleavage is 0.
Consider A11C C31A G33A, for which the self-cleavage stood at 0.
As for A11G G17U A24C, the self-cleavage stood at 0.02.
The value for A11C A24C U38A was 0.03; that for A11C C23A A26U C37G was 0; that for A11C C18A U20C C23G C46U was 0.01.
A11C G22A G29A G33A U43C: the self-cleavage is 0.
In the case of A11C A25C U38C, the self-cleavage is 0.05.
Regarding A11C G17C G29A, the self-cleavage was found to be 0.02.
With A11G C15U G44U the figure was 0.02; with A11G C15A G33C, 0.03.
With A11G G19A U20A G22U the figure was 0.01; with A11C G22U A24U C46U, 0.01; with A11G C13A G17C G29A C31U, 0.01.
For A11G A12U A14G G22A, the self-cleavage amounted to 0.
Regarding A11G C18A G22U G29U A41U C42G, the self-cleavage is 0.
Take A11G C37G C46A: the self-cleavage came to 0.
The value for A11G G22A U32A C37U G40C U43C was 0.01; that for A11C A16U G19U G27A G29U U32G was 0.04.
With A11G C15A U38C G40A C46U, the self-cleavage came out at 0.01.
The value for A11G G35U G36U was 0.02; that for A11G A26G G33U U34G U43A C46G was 0.01.
The value for A11G G30A G33C U43A was 0.03.
Take A11G A25U U38A C42A U43G: the self-cleavage came out at 0.
As to A11G C23A A41G, the self-cleavage was 0.02.
As to A11C C13A U32G, the self-cleavage amounted to 0.01.
In the case of A11G A16C C18A G22A, the self-cleavage is 0.
Turning to A11G C31A U43G, the self-cleavage was 0.02.
Regarding A11C C23U G36C, the self-cleavage was determined as 0.01.
The value for A11G C23U U28G C42A was 0.
